# Test results reported in the supplement of paper PMC8728848.
# This is one part of the list.
# Tests used:
# Assay in all cases: glycan array binding signal (z-score within array); higher = stronger binding
# Settings in all cases: glycan notation: IUPAC condensed, linker removed
# [1] = target: 3dGal(b1-3)[Fuc(a1-4)]Glc
# Method in brief: (§1)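 Columns mapping to the same glycan were averaged after glycan names were converted to IUPAC-condensed notation. The data come from 3228 arrays in the Consortium for Functional Glycomics database, limited to those with an available protein sequence. Binding is reported as a within-array Z-score averaged across arrays of one protein sequence and across linkers.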
# 3dGal(b1-4)Glc = target: 3dGal(b1-4)Glc
# Method in brief: as §1
# [2] = target: 4d8dNeu5Ac(a2-3)Gal(b1-4)Glc
# Method in brief: as §1
# [3] = target: 4dNeu5Ac(a2-3)Gal(b1-4)Glc
# Method in brief: as §1
# [4] = target: 7dNeu5Ac(a2-3)Gal(b1-4)Glc
# Method in brief: as §1
# [5] = target: 8dNeu5Ac(a2-3)Gal(b1-4)Glc
# Method in brief: as §1
# [6] = target: 9dNeu5Ac(a2-3)Gal(b1-4)Glc
# Method in brief: as §1
# [7] = target: Ara(a1-5)Ara(a1-5)Ara(a1-5)Ara(a1-5)Ara(a1-5)Ara
# Method in brief: as §1
# [8] = target: Ara(a1-5)Ara(a1-5)Ara(a1-5)Ara(a1-5)Ara(a1-5)Ara(a1-5)Ara
# Method in brief: as §1
# Fuc(a1-2)Gal = target: Fuc(a1-2)Gal
# Method in brief: as §1
# Fuc(a1-2)Gal(b1-3)GalNAc = target: Fuc(a1-2)Gal(b1-3)GalNAc
# Method in brief: as §1
# [9] = target: Fuc(a1-2)Gal(b1-3)GalNAc(a1-3)[Fuc(a1-2)]Gal(b1-4)Glc
# Method in brief: as §1
# [10] = target: Fuc(a1-2)Gal(b1-3)GalNAc(a1-3)[Fuc(a1-2)]Gal(b1-4)GlcNAc
# Method in brief: as §1
# [11] = target: Fuc(a1-2)Gal(b1-3)GalNAc(b1-3)Gal
# Method in brief: as §1
# [12] = target: Fuc(a1-2)Gal(b1-3)GalNAc(b1-3)Gal(a1-4)Gal(b1-4)Glc
# Method in brief: as §1
# [13] = target: Fuc(a1-2)Gal(b1-3)GalNAc(b1-4)[Neu5Ac(a2-3)]Gal(b1-4)Glc
# Method in brief: as §1
# Fuc(a1-2)Gal(b1-3)GlcNAc = target: Fuc(a1-2)Gal(b1-3)GlcNAc
# Method in brief: as §1
# [14] = target: Fuc(a1-2)Gal(b1-3)GlcNAc(b1-2)Man(a1-3)[Fuc(a1-2)Gal(b1-3)GlcNAc(b1-2)Man(a1-6)]Man(b1-4)GlcNAc(b1-4)GlcNAc
# Method in brief: as §1
# [15] = target: Fuc(a1-2)Gal(b1-3)GlcNAc(b1-2)Man(a1-3)[Fuc(a1-2)Gal(b1-3)GlcNAc(b1-2)Man(a1-6)]Man(b1-4)GlcNAc(b1-4)[Fuc(a1-6)]GlcNAc
# Method in brief: as §1
# [16] = target: Fuc(a1-2)Gal(b1-3)GlcNAc(b1-3)Gal(b1-4)Glc
# Method in brief: as §1
# [17] = target: Fuc(a1-2)Gal(b1-3)GlcNAc(b1-3)GalNAc
# Method in brief: as §1
# [18] = target: Fuc(a1-2)Gal(b1-3)GlcNAc(b1-3)[Fuc(a1-2)Gal(b1-3)GlcNAc(b1-6)]GalNAc
# Method in brief: as §1
# [19] = target: Fuc(a1-2)Gal(b1-3)GlcNAc(b1-3)[Fuc(a1-3)[Gal(b1-4)]GlcNAc(b1-6)]Gal(b1-4)Glc
# Method in brief: as §1
# [20] = target: Fuc(a1-2)Gal(b1-3)GlcNAc(b1-3)[Gal(b1-4)GlcNAc(b1-6)]Gal(b1-4)Glc
# Method in brief: as §1
# [21] = target: Fuc(a1-2)Gal(b1-3)GlcNAc(b1-3)[Neu5Ac(a2-6)Gal(b1-4)GlcNAc(b1-6)]Gal(b1-4)Glc
# Method in brief: as §1
# [22] = target: Fuc(a1-2)Gal(b1-3)GlcNAc6S
# Method in brief: as §1
# [23] = target: Fuc(a1-2)Gal(b1-3)[Fuc(a1-4)]GlcNAc
# Method in brief: as §1
# [24] = target: Fuc(a1-2)Gal(b1-3)[Fuc(a1-4)]GlcNAc(b1-2)Man(a1-3)[Fuc(a1-2)Gal(b1-3)[Fuc(a1-4)]GlcNAc(b1-2)Man(a1-3)]Man(b1-4)GlcNAc(b1-4)GlcNAc
# Method in brief: as §1
# [25] = target: Fuc(a1-2)Gal(b1-3)[Fuc(a1-4)]GlcNAc(b1-2)Man(a1-3)[Fuc(a1-2)Gal(b1-3)[Fuc(a1-4)]GlcNAc(b1-2)Man(a1-6)]Man(b1-4)GlcNAc(b1-4)GlcNAc
# Method in brief: as §1
# [26] = target: Fuc(a1-2)Gal(b1-3)[Fuc(a1-4)]GlcNAc(b1-2)Man(a1-3)[Fuc(a1-2)Gal(b1-3)[Fuc(a1-4)]GlcNAc(b1-2)Man(a1-6)]Man(b1-4)GlcNAc(b1-4)[Fuc(a1-6)]GlcNAc(b1-4)[Fuc(a1-6)]GlcNAc
# Method in brief: as §1
# [27] = target: Fuc(a1-2)Gal(b1-3)[Fuc(a1-4)]GlcNAc(b1-3)Gal(b1-4)Glc
# Method in brief: as §1
# [28] = target: Fuc(a1-2)Gal(b1-3)[Fuc(a1-4)]GlcNAc(b1-3)Gal(b1-4)[Fuc(a1-3)]GlcNAc(b1-3)Gal(b1-4)Glc
# Method in brief: as §1
# [29] = target: Fuc(a1-2)Gal(b1-3)[Fuc(a1-4)]GlcNAc(b1-3)[Fuc(a1-2)]Gal(b1-4)Glc
# Method in brief: as §1
# [30] = target: Fuc(a1-2)Gal(b1-3)[Fuc(a1-4)]GlcNAc(b1-3)[Fuc(a1-3)[Gal(b1-4)]GlcNAc(b1-6)]Gal(b1-4)Glc
# Method in brief: as §1
# [31] = target: Fuc(a1-2)Gal(b1-3)[Fuc(a1-4)]GlcNAc(b1-3)[Gal(b1-4)GlcNAc(b1-6)]Gal(b1-4)Glc
# Method in brief: as §1
# [32] = target: Fuc(a1-2)Gal(b1-4)Fuc(a1-3)]GlcNAc(b1-2)Man(a1-3)[Fuc(a1-2)Gal(b1-4)[Fuc(a1-3)]GlcNAc(b1-2)Man(a1-6)]Man(b1-4)GlcNAc(b1-4)GlcNAc
# Method in brief: as §1
# Fuc(a1-2)Gal(b1-4)Glc = target: Fuc(a1-2)Gal(b1-4)Glc
# Method in brief: as §1
# Fuc(a1-2)Gal(b1-4)Glc6S = target: Fuc(a1-2)Gal(b1-4)Glc6S
# Method in brief: as §1
# Fuc(a1-2)Gal(b1-4)GlcNAc = target: Fuc(a1-2)Gal(b1-4)GlcNAc
# Method in brief: as §1
# [33] = target: Fuc(a1-2)Gal(b1-4)GlcNAc(b1-2)Man
# Method in brief: as §1
# [34] = target: Fuc(a1-2)Gal(b1-4)GlcNAc(b1-2)Man(a1-3)[Fuc(a1-2)Gal(b1-4)GlcNAc(b1-2)Man(a1-6)]Man(b1-4)GlcNAc(b1-4)GlcNAc
# Method in brief: as §1
# [35] = target: Fuc(a1-2)Gal(b1-4)GlcNAc(b1-2)Man(a1-3)[Fuc(a1-2)Gal(b1-4)GlcNAc(b1-2)Man(a1-6)]Man(b1-4)GlcNAc(b1-4)[Fuc(a1-6)]GlcNAc
# Method in brief: as §1
# [36] = target: Fuc(a1-2)Gal(b1-4)GlcNAc(b1-2)[Fuc(a1-2)Gal(b1-4)GlcNAc(b1-4)]Man(a1-3)[Fuc(a1-2)Gal(b1-4)GlcNAc(b1-2)Man(a1-6)]Man(b1-4)GlcNAc(b1-4)GlcNAc
# Method in brief: as §1
# [37] = target: Fuc(a1-2)Gal(b1-4)GlcNAc(b1-3)Gal(b1-4)GlcNAc
# Method in brief: as §1
# [38] = target: Fuc(a1-2)Gal(b1-4)GlcNAc(b1-3)Gal(b1-4)GlcNAc(b1-2)Man(a1-3)[Fuc(a1-2)Gal(b1-4)GlcNAc(b1-3)Gal(b1-4)GlcNAc(b1-2)Man(a1-6)]Man(b1-4)GlcNAc(b1-4)GlcNAc
# Method in brief: as §1
binder,measurement,setting,value
"CLEC5A (Homo sapiens), Q9NY25 (protein) MNWHMIISGLIVVVLKVVGMTLFLLYFPQIFNKSNDGFTTTRSYGTVSQIFGSSSPSPNGFITTRSYGTVCPKDWEFYQARCFFLSTSESSWNESRDFCKGKGSTLAIVNTPEKLKFLQDITDAEKYFIGLIYHREEKRWRWINNSVFNGNVTNQNQNFNCATIGLTKTFDAASCDISYRRICEKNAK",glycan array binding signal (z-score),[1],-0.32
same,glycan array binding signal (z-score),3dGal(b1-4)Glc,-0.32
same,glycan array binding signal (z-score),[2],-0.32
same,glycan array binding signal (z-score),[3],-0.32
same,glycan array binding signal (z-score),[4],1.51
same,glycan array binding signal (z-score),[5],-0.32
same,glycan array binding signal (z-score),[6],-0.32
same,glycan array binding signal (z-score),[7],0.258
same,glycan array binding signal (z-score),[8],0.162
same,glycan array binding signal (z-score),Fuc(a1-2)Gal,-0.17
same,glycan array binding signal (z-score),Fuc(a1-2)Gal(b1-3)GalNAc,-0.25
same,glycan array binding signal (z-score),[9],-0.276
same,glycan array binding signal (z-score),[10],-0.243
same,glycan array binding signal (z-score),[11],0.222
same,glycan array binding signal (z-score),[12],0.089
same,glycan array binding signal (z-score),[13],-0.178
same,glycan array binding signal (z-score),Fuc(a1-2)Gal(b1-3)GlcNAc,-0.219
same,glycan array binding signal (z-score),[14],0.119
same,glycan array binding signal (z-score),[15],-0.121
same,glycan array binding signal (z-score),[16],-0.205
same,glycan array binding signal (z-score),[17],-0.081
same,glycan array binding signal (z-score),[18],-0.056
same,glycan array binding signal (z-score),[19],0.22
same,glycan array binding signal (z-score),[20],-0.202
same,glycan array binding signal (z-score),[21],-0.149
same,glycan array binding signal (z-score),[22],-0.112
same,glycan array binding signal (z-score),[23],-0.289
same,glycan array binding signal (z-score),[24],0.282
same,glycan array binding signal (z-score),[25],0.798
same,glycan array binding signal (z-score),[26],-0.042
same,glycan array binding signal (z-score),[27],0.066
same,glycan array binding signal (z-score),[28],0.837
same,glycan array binding signal (z-score),[29],-0.127
same,glycan array binding signal (z-score),[30],-0.019
same,glycan array binding signal (z-score),[31],-0.428
same,glycan array binding signal (z-score),[32],0.292
same,glycan array binding signal (z-score),Fuc(a1-2)Gal(b1-4)Glc,-0.134
same,glycan array binding signal (z-score),Fuc(a1-2)Gal(b1-4)Glc6S,-0.131
same,glycan array binding signal (z-score),Fuc(a1-2)Gal(b1-4)GlcNAc,-0.165
same,glycan array binding signal (z-score),[33],-0.152
same,glycan array binding signal (z-score),[34],-0.162
same,glycan array binding signal (z-score),[35],-0.096
same,glycan array binding signal (z-score),[36],-0.099
same,glycan array binding signal (z-score),[37],-0.114
same,glycan array binding signal (z-score),[38],-0.047
